Measurements from patent US20020032228A1 (priority 2000, published 2002).

Experiments:
[1] = tested on: cells
[2] = pH 5.5

Molecule | toxicity for cells [1] | time the adduct appeared stable [2]
prostaglandin E2-histidine [PGE2-histidine] | not toxic for cells | –
CCCCCC(O)/C=C/[C@H]1C(n2ccnc2)CC(=O)[C@H]1C/C=C\CCCC(=O)O (stereo partly drawn) [PGE2-imidazole, 11-deoxy-11-imidazolyl-PGE2] | not toxic for cells | approximately 12 hours
